Results reported in a collection of fitness landscapes (doi:10.1126/science.1257360).
The other results are listed elsewhere or left out.

B1: PhoQ; a variant is named by its letters at X, in order, P23837 (parent)
chain: MKKLLRLFFPLSLRVRFLLATAAVVLVLSLAYGMVALIGYSVSFDKTTFRLLRGESNLFYTLAKWENNKLHVELPENIDKQSPTMTLIYDENGQLLWAQRDVPWLMKMIQPDWLKSNGFHEIEADVNDTSLLLSGDHSIQQQLQEVREDDDDAEMTHSVAVNVYPATSRMPKLTIVVVDTIPVELKSSYMVWSWFIYVLSANLLLVIPLLWVAAWWSLRPIEALAKEVRELEEHNRELLNPATTRELTSLVRNLNRLLKSERERYDKYRTTLTDLTHSLKTPLXXLQXXLRSLRSEKMSVSDAEPVMLEQISRISQQIGYYLHRASMRGGTLLSRELHPVAPLLDNLTSALNKVYQRKGVNISLDISPEISFVGEQNDFVEVMGNVLDNACKYCLEFVEISARQTDEHLYIVVEDDGPGIPLSKREVIFDRGQRVDTLRPGQGVGLAVAREITEQYEGKIVAGESMLGGARMEVIFGRQHSAPKDE

Variants of: B1
Assay: enrichment ratio after two sorts for PhoP signalling (ratio (wild type AVST 3.29)); higher = more functional
Conditions: with PhoP (E. coli)

PGQN and EHRT cannot be ordered by enrichment ratio: ≤ 0.25 for the first, ≤ 0.25 for the second.

SWIG and KSRI cannot be ordered by enrichment ratio: ≤ 0.25 for the first, ≤ 0.25 for the second.

YNLR and ELNC cannot be ordered by enrichment ratio: ≤ 0.25 for the first, ≤ 0.25 for the second.

NCGM and FVFH cannot be ordered by enrichment ratio: ≤ 0.25 for the first, ≤ 0.25 for the second.

KEWY and QKKT cannot be ordered by enrichment ratio: ≤ 0.25 for the first, ≤ 0.25 for the second.

GAHW and RYSS cannot be ordered by enrichment ratio: ≤ 0.25 for the first, ≤ 0.25 for the second.

TLML and EPTS cannot be ordered by enrichment ratio: ≤ 0.25 for the first, ≤ 0.25 for the second.

First: AKAI
Second: YRCE
The enrichment ratio of the first is higher: 5.1 for the first, ≤ 0.25 for the second.

SHED and HMKI cannot be ordered by enrichment ratio: ≤ 0.25 for the first, ≤ 0.25 for the second.

MDNS and GKLR cannot be ordered by enrichment ratio: ≤ 0.25 for the first, ≤ 0.25 for the second.

YSHC and LAFK cannot be ordered by enrichment ratio: ≤ 0.25 for the first, ≤ 0.25 for the second.

QALQ and IVYF cannot be ordered by enrichment ratio: ≤ 0.25 for the first, ≤ 0.25 for the second.

NCSF and TDNP cannot be ordered by enrichment ratio: ≤ 0.25 for the first, ≤ 0.25 for the second.

WQYH and FNAG cannot be ordered by enrichment ratio: ≤ 0.25 for the first, ≤ 0.25 for the second.

EDHG and KRPC cannot be ordered by enrichment ratio: ≤ 0.25 for the first, ≤ 0.25 for the second.

Compared with YYWG, TKCI is higher in enrichment ratio: ≤ 0.25 for the first, 10.8 for the second.

EFMQ and DINW cannot be ordered by enrichment ratio: ≤ 0.25 for the first, ≤ 0.25 for the second.

MDDF and EQER cannot be ordered by enrichment ratio: ≤ 0.25 for the first, ≤ 0.25 for the second.

DNGP and SRDM cannot be ordered by enrichment ratio: ≤ 0.25 for the first, ≤ 0.25 for the second.

Going from HNMF to ARCY, the enrichment ratio rises from ≤ 0.25 to 2.12.

SANS and FPIQ cannot be ordered by enrichment ratio: ≤ 0.25 for the first, ≤ 0.25 for the second.

FQDG and NFCA cannot be ordered by enrichment ratio: ≤ 0.25 for the first, ≤ 0.25 for the second.

Compared with SHRP, AGMH is higher in enrichment ratio: ≤ 0.25 for the first, 26 for the second.

HQQC and GSIR cannot be ordered by enrichment ratio: ≤ 0.25 for the first, ≤ 0.25 for the second.

Going from KRVR to QGSY, the enrichment ratio rises from ≤ 0.25 to 4.05.

TTHW and DTPM cannot be ordered by enrichment ratio: ≤ 0.25 for the first, ≤ 0.25 for the second.

NRGQ and KRGG cannot be ordered by enrichment ratio: ≤ 0.25 for the first, ≤ 0.25 for the second.

VRLL and PYGT cannot be ordered by enrichment ratio: ≤ 0.25 for the first, ≤ 0.25 for the second.

WNFG and EQLM cannot be ordered by enrichment ratio: ≤ 0.25 for the first, ≤ 0.25 for the second.

PWIW and PSSH cannot be ordered by enrichment ratio: ≤ 0.25 for the first, ≤ 0.25 for the second.

FRDP and DYMA cannot be ordered by enrichment ratio: ≤ 0.25 for the first, ≤ 0.25 for the second.

WQVE and VKMC cannot be ordered by enrichment ratio: ≤ 0.25 for the first, ≤ 0.25 for the second.

KVTN and TYAT cannot be ordered by enrichment ratio: ≤ 0.25 for the first, ≤ 0.25 for the second.

ARKG and PTDC cannot be ordered by enrichment ratio: ≤ 0.25 for the first, ≤ 0.25 for the second.

YVCW and SQMW cannot be ordered by enrichment ratio: ≤ 0.25 for the first, ≤ 0.25 for the second.

Compared with ATVW, IGHG is lower in enrichment ratio: 3.56 for the first, ≤ 0.25 for the second.

FPLH and LASE cannot be ordered by enrichment ratio: ≤ 0.25 for the first, ≤ 0.25 for the second.

First: AASC
Second: MDAK
The enrichment ratio of the first is higher: 0.887 for the first, ≤ 0.25 for the second.

MPDL and NGQK cannot be ordered by enrichment ratio: ≤ 0.25 for the first, ≤ 0.25 for the second.

RVNT and HNLT cannot be ordered by enrichment ratio: ≤ 0.25 for the first, ≤ 0.25 for the second.

MCHY and NYHD cannot be ordered by enrichment ratio: ≤ 0.25 for the first, ≤ 0.25 for the second.

YCCH and MHGS cannot be ordered by enrichment ratio: ≤ 0.25 for the first, ≤ 0.25 for the second.

First: MKNW
Second: TIYQ
The enrichment ratio of the first is lower: ≤ 0.25 for the first, 1.43 for the second.

SPNV and DHRC cannot be ordered by enrichment ratio: ≤ 0.25 for the first, ≤ 0.25 for the second.

YLVM and KEAN cannot be ordered by enrichment ratio: ≤ 0.25 for the first, ≤ 0.25 for the second.

HAHY and PLVC cannot be ordered by enrichment ratio: ≤ 0.25 for the first, ≤ 0.25 for the second.

QCFI and FYYR cannot be ordered by enrichment ratio: ≤ 0.25 for the first, ≤ 0.25 for the second.

Going from SWMY to ATFQ, the enrichment ratio rises from ≤ 0.25 to 2.02.

FPNV and RLAD cannot be ordered by enrichment ratio: ≤ 0.25 for the first, ≤ 0.25 for the second.

AIGQ and GKVC cannot be ordered by enrichment ratio: ≤ 0.25 for the first, ≤ 0.25 for the second.

RIRN and HYHK cannot be ordered by enrichment ratio: ≤ 0.25 for the first, ≤ 0.25 for the second.

GSFW and LFQK cannot be ordered by enrichment ratio: ≤ 0.25 for the first, ≤ 0.25 for the second.

YLYK and HFGT cannot be ordered by enrichment ratio: ≤ 0.25 for the first, ≤ 0.25 for the second.

AVFW and QCHS cannot be ordered by enrichment ratio: ≤ 0.25 for the first, ≤ 0.25 for the second.

Going from GSWS to THYM, the enrichment ratio rises from ≤ 0.25 to 2.75.

LHKH and WDNF cannot be ordered by enrichment ratio: ≤ 0.25 for the first, ≤ 0.25 for the second.

QKRY and YYCG cannot be ordered by enrichment ratio: ≤ 0.25 for the first, ≤ 0.25 for the second.

Compared with DIPE, SIAH is higher in enrichment ratio: ≤ 0.25 for the first, 6.54 for the second.

YVDD and DESR cannot be ordered by enrichment ratio: ≤ 0.25 for the first, ≤ 0.25 for the second.

YGYN and TGKS cannot be ordered by enrichment ratio: ≤ 0.25 for the first, ≤ 0.25 for the second.

WVKN and PEEI cannot be ordered by enrichment ratio: ≤ 0.25 for the first, ≤ 0.25 for the second.

YDKG and NHWY cannot be ordered by enrichment ratio: ≤ 0.25 for the first, ≤ 0.25 for the second.

DCRD and DWIP cannot be ordered by enrichment ratio: ≤ 0.25 for the first, ≤ 0.25 for the second.

EMGV and QRDS cannot be ordered by enrichment ratio: ≤ 0.25 for the first, ≤ 0.25 for the second.

First: ISNV
Second: QHDV
The enrichment ratio of the first is lower: 0.738 for the first, 3.57 for the second.

LQTH and GWAL cannot be ordered by enrichment ratio: ≤ 0.25 for the first, ≤ 0.25 for the second.

GYTE and FQRL cannot be ordered by enrichment ratio: ≤ 0.25 for the first, ≤ 0.25 for the second.

QNTR and LTNG cannot be ordered by enrichment ratio: ≤ 0.25 for the first, ≤ 0.25 for the second.

First: MTAW
Second: LVMP
The enrichment ratio of the first is lower: ≤ 0.25 for the first, 0.378 for the second.

KHTD and IWHY cannot be ordered by enrichment ratio: ≤ 0.25 for the first, ≤ 0.25 for the second.

First: VYVG
Second: SVCQ
The enrichment ratio of the first is lower: ≤ 0.25 for the first, 10.8 for the second.

LTCS and TKRQ cannot be ordered by enrichment ratio: ≤ 0.25 for the first, ≤ 0.25 for the second.

CYLP and EAWD cannot be ordered by enrichment ratio: ≤ 0.25 for the first, ≤ 0.25 for the second.

YDDG and FTMD cannot be ordered by enrichment ratio: ≤ 0.25 for the first, ≤ 0.25 for the second.

KSYV and RFCP cannot be ordered by enrichment ratio: ≤ 0.25 for the first, ≤ 0.25 for the second.

SEYW and YTDL cannot be ordered by enrichment ratio: ≤ 0.25 for the first, ≤ 0.25 for the second.

KLKV and MKIT cannot be ordered by enrichment ratio: ≤ 0.25 for the first, ≤ 0.25 for the second.

ARSW and SWQY cannot be ordered by enrichment ratio: ≤ 0.25 for the first, ≤ 0.25 for the second.

IQFQ and PKPR cannot be ordered by enrichment ratio: ≤ 0.25 for the first, ≤ 0.25 for the second.

EYCS and FHPG cannot be ordered by enrichment ratio: ≤ 0.25 for the first, ≤ 0.25 for the second.

YRNS and ENST cannot be ordered by enrichment ratio: ≤ 0.25 for the first, ≤ 0.25 for the second.

Compared with GECG, ASFT is higher in enrichment ratio: ≤ 0.25 for the first, 1.36 for the second.

YYLA and KQGM cannot be ordered by enrichment ratio: ≤ 0.25 for the first, ≤ 0.25 for the second.

HMNW and KKLC cannot be ordered by enrichment ratio: ≤ 0.25 for the first, ≤ 0.25 for the second.

MLWH and FGQC cannot be ordered by enrichment ratio: ≤ 0.25 for the first, ≤ 0.25 for the second.

VNGP and LIIL cannot be ordered by enrichment ratio: ≤ 0.25 for the first, ≤ 0.25 for the second.

VPIR and FGMT cannot be ordered by enrichment ratio: ≤ 0.25 for the first, ≤ 0.25 for the second.

NDTF and PQVR cannot be ordered by enrichment ratio: ≤ 0.25 for the first, ≤ 0.25 for the second.

PCMR and AHPY cannot be ordered by enrichment ratio: ≤ 0.25 for the first, ≤ 0.25 for the second.

MAMA and VMYP cannot be ordered by enrichment ratio: ≤ 0.25 for the first, ≤ 0.25 for the second.

MHWE and QTDR cannot be ordered by enrichment ratio: ≤ 0.25 for the first, ≤ 0.25 for the second.

ILIV and FHHS cannot be ordered by enrichment ratio: ≤ 0.25 for the first, ≤ 0.25 for the second.

YEFV and RVEC cannot be ordered by enrichment ratio: ≤ 0.25 for the first, ≤ 0.25 for the second.

WCFK and KKKV cannot be ordered by enrichment ratio: ≤ 0.25 for the first, ≤ 0.25 for the second.

First: VYVY
Second: WTRV
The enrichment ratio of the first is higher: 0.367 for the first, ≤ 0.25 for the second.

WWSP and VPHW cannot be ordered by enrichment ratio: ≤ 0.25 for the first, ≤ 0.25 for the second.

IHFQ and PSFN cannot be ordered by enrichment ratio: ≤ 0.25 for the first, ≤ 0.25 for the second.

With YMIC the enrichment ratio was ≤ 0.25.
